In the RNAGym collection of RNA variant scans (doi:10.1101/gad.245936.114):
Variants at the background level are over-represented here.

B1: tRNA (parent)
chain: CUCUCGGUAGCCAAGUUGGUUUAAGGCGCAAGACUUUAAUUUAUCACUACGAAAUCUUGAGAUCGGGCGUUCGACUCGCCCCCGGGAGAUUUUUUCCUCGAGCAA

Variants of: B1
Assay: nonsense suppression (GFP-seq) (ratio to wild type); higher = more function; SUP4oc tRNA, yeast GFP reporter sort-seq
In short: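 Each variant's nonsense suppression (GFPSEQ) is a cell-share-weighted bin median GFP/RFP relative to the unmutated parent tRNA. Yeast with genome-integrated tRNA variants from a ~3% random-mutation library, a galactose-driven GFP ochre reporter and RFP were grown in raffinose/galactose medium with 80 mg/L adenine, then sorted into GFP/RFP bins for Illumina sequencing. Variants needed ≥100 reads and ≥30 cells.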

Nonsense suppression, ≤ 0.026:
CUGUCGGUAGACAAGUUUGUUUAAGGCGCAGGACUUUAAUUUAUCACUACGAAAUCUUGAGAUCGGGCGUUCGACUCGCCCCCGGGAGAUUUUUUCCUCGAGCAA [C3G C11A G18U A31G]
CUGUCGGUAGCCAUGUUGGUUUAAGGCGCAAGUCUUUAAUUUAUCACUACGAAAUCUUGAGAUCGGGCGUUCUAAUCGCACCCGGGAGAUUUUUUCCUCGAGCAA [C3G A14U A33U G73U C75A C80A]
CUGUCGGUAGCCAAGUUGGUUUAAGGCGCACGACUUUAAUUUAUCACUACGAAAUCUUGAGAUCGGGGGUUCGACUUGCCCCCGGGAGAUUUUUUCCUCGAGCAA [C3G A31C C68G C77U]
CUGUUGGUAGCCAAGUUGGUUUAAGGCGCAAGACUUUAAUUUAUCACUACGAAAUCUUGAGAUCCGGCGUUCGACUCGCCCCCGGGAGAUUUUUUCCUCGAGCAA [C3G C5U G65C]
CUGUCGGUAGCCAAGUUGGUUUGAGGCGCAAGACUUUAAUUUAUCACUACGAAAUCUUGAGAUCGGGCGCUCGACUCGCCCCCGGGAGAUUUUUUCCUCGAGCAA [C3G A23G U70C]
CUGUCGGUAGCCAAGUUGGUUUAAGGCGCAAGCCUUUAAUUUAUCACUACGAAAUCCUGAGAUCGGGCGUUCGACUCGCCCCCGGGAGAUUUUUUCCUCGAGCAA [C3G A33C U57C]
CUGUCGGUAGCCAUGUUUGUUUAAGGCGCAAGACUUUAAUUUAUCACUACGAAAUCUUGAGAUCGGGCGUUCGACUCGCCCCCGGGAGAUUUUUUCCUCGAGCAA [C3G A14U G18U]
CUGUCGGUAGCCAAGUUGGUUUAAGGCGCUGGACUUUAAUUUAUCACUACGAAAUCUUGAGAUCCGGCGUUCGACUCGCCCCCGGGAGAUUUUUUCCUCGAGCAA [C3G A30U A31G G65C]
CUGUCGGUAGCCAAGUUGGUUUAAGGCGCAAGACUUUAAUUUAUCACUACGAAAUCUUGAGCUCGGGCGUUCGACUCGCCCCGGGGAGAUUUUUUCCUCGAGCAA [C3G A62C C83G]
CUGUCGGUAGCCAAGUUGGUUUAAGGCGCAAGACUUUAAUUUAUCACUACGAAAUCUUGAGUUCGGGCGUUCGACUCACCCCCGGGAGAUUUUUUCCUCGAGCAA [C3G A62U G78A]
CUGUGGGUAGCCAAGUUGGUUUAAGGCGCAAGACUUUAAUUUAUCACUACGAAAUCUUGAGAUCGGGCCUUCGACUCGCCCCCGUGAGAUUUUUUCCUCGAGCAA [C3G C5G G69C G85U]
CUGUAGGUAGCCAAGUUGGUUUAAGGCGCAAGACUUUAAUUUAUCACUACGAAAUCUUCAGAUCGGGCGUUCAACUCGCCCCCGGGAGAUUUUUUCCUCGAGCAA [C3G C5A G59C G73A]
CUGUCGGUAGCCAAGUUGGUUUAAGGCGCAAGGCUUUAAUUUAUCACUACGAAAUCUUGAGAUCGGGCGUUCGACUCGCCCCCGGGUGAUUUUUUCCUCGAGCAA [C3G A33G A87U]
CUGUCGGUAGCCAAGUUGGUUUACGGCGCAAGACUUUAAUUUAUCACUACGAAAUCUUGAGAUCGGGCGUUCGACUCGCCCCCGGUAGAUUUUUUCCUCGAGCAA [C3G A24C G86U]
CUGUCGGUAGCCAAGUUGGUUUAAGGCGCAAGACUUUAAUUUAUCACUACGAAAUCUUGAGAUCGGGCGUUCGUCUCGCCCCCGGGAGAUUUUUUCCUCGAGCAA [C3G A74U]
CUGUCGGUAGCCAUGUUGGUUUAAGGCGCAAGACUUUAAUUUAUCACUACGAAAUCUUGAGAUCGGGCGUUCGACUCGCCCCCGGGAGAUUUUUUCCUCGAGCAA [C3G A14U]
CUGUCGGUAGCCAAGUUGGUUUGAGGCGCAACACUUUAAUUUAUCACUACGAAAUCUAGAGAUCGGGCGUUCGACUCGCCCCCGGGAGGUUUUUUCCUCGAGCAA [C3G A23G G32C U58A A89G]
CUGUCGGUAGCCAAGUUGGUUUAAGGCGCAAGACUUUAAUUUAUCACUACGAAGUCUUGAGAUCGGGCGUUCGACUCGCCCCCGGGAGAUUUUUUCCUCGAGCAA [C3G A54G]
CUGUGGGUAGCCAAGUUGGUUUAAGGCGCAAGACUUUAAUUUAUCACUACGAAAUCUUGAGAUCGGGCGUUCGACUCGCCCCCGGGAGAUUUUUUCCUCGAGCAA [C3G C5G]
CUGUUGGUAGCCAAGUUGGUUUAAGGCGCAAGUCUUUAAUUUAUCACUACGAAAUCUUGAGAUCGGGCGUUCGACUCACCCCCGGGAGAUUUUUUCCUCGAGCAA [C3G C5U A33U G78A]
CUGUCGGUAGCCAAGUUGGUUUGAGGUGCAAGACUUUAAUUUAUCACUACGAAAUCUUGAGAUCGGGCGUUCGACUCGCCACAGGAAGAUUUUUUCCUCGAGCAA [C3G A23G C27U C81A C83A G86A]
CUGUCGGUAGCCAAGUUGGUUUUAGGCUCAAGACUUUAAUUUAUCACUACGAAAUCCUGAGAUCGGACGUUCGACUCGCCCCCGGGAGAUUUUUUCCUCGAGCAA [C3G A23U G28U U57C G67A]
CUGUCGGUAGCCAAGUUGGUUUAAGGCGCAAGUUUUUAAUUUAUCACUACGAAAUCUUGAGGUCGGCCGUUCGACUCGCCCCCGGGAGAUUUUUUCCUCGAGCAA [C3G A33U C34U A62G G67C]
CUGUCGGUAGCCAAGUUGGUUUAAGGCGCAAGACUUUAAUUUAUCACUACGAAAUCUUGAGUUCGGGCGUUCGUCUCGCCCCCGGGAGAUUUUUUCCUCGAGCAA [C3G A62U A74U]
CUGUGGGUAGACAAGUUGGUUUAAGGCGCAAGACUUUAAUUUAUCACUACGAAAUCUUCAGAUCGGGCGUUCGACUCGCCCCCGGGAGAUUUUUUCCUCGAGCAA [C3G C5G C11A G59C]
CUGUCGGUAGACAAGUUGGUUUAAGGCGCAAGACUUUAAUUUAUCACUACGAAAUCUUGAGAUCGGGCGUUCGACUCGCCGCCGGGAGAUUUUUUCCUCGAGCAA [C3G C11A C81G]
CUGUCGGUAGCCAAGUUGGUUUCAGGCGCAAGAUUUUAAUUUAUCACUACGAAAUCUUGAGAUCGGGCGUUCGACGCGCCCCCGGGAGAUUUUUUCCUCGAGCAA [C3G A23C C34U U76G]
